{
  "source": "PubChem BioAssay AID1347073",
  "about": "(National Center for Advancing Translational Sciences (NCATS), 2019)",
  "note": "In all, about 45,000 compounds went through this assay and about 200 (0.44%) were called active. Not shown: some 7% with an inconclusive outcome. Calls follow the shape of the dose curve; as a rule, active = well fitted activation curve with a large enough effect; inconclusive = small, poorly fitted or top-dose-only effect; inactive = no such curve, though single readings can be large or run the other way. The list shows a part of the results.",
  "data": [
    {"assay": "qHTS of TDP-43 Inhibitors: NCGC Sytravon Library Screen; also: 0% is about no effect; nearly all actives have a fitted effect of over 55% in size", "details": "yeast TDP-43 toxicity rescue, BacTiter-Glo growth, 24 h; series mostly up to 46.1 µM; growth rescue (activation): at the top concentration", "in_short": "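TDP-43-expressing yeast, pregrown in raffinose, seeded at OD600 0.02 in galactose medium with compound for 24 hr at 30 deg C. Growth read by BacTiter-Glo luminescence, so rescue of toxicity appears as activation.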", "values": [
      {"smiles": "Cc1ccc(S(=O)(=O)N(C(=O)c2ccco2)c2cc3sc(=O)oc3c3ccccc23)cc1", "growth rescue (activation)": "inactive: 26.1%"},
      {"smiles": "NC(=O)COC(=O)CCCc1c[nH]c2ccccc12", "growth rescue (activation)": "inactive: -10.1%"},
      {"smiles": "Cc1ccc2nc(C)c3c(c2c1)OC(C(C)(Cl)Br)C3", "note": "(stereo not given)", "growth rescue (activation)": "inactive: -3.62%"},
      {"smiles": "O=C(COC(=O)c1ccc(O)cc1)Nc1ccccc1-c1ccccc1", "growth rescue (activation)": "inactive: -1.17%"},
      {"smiles": "CCOC(=O)c1c(NC(=O)c2ccc(S(=O)(=O)N(CC)CC)cc2)sc2c1CCCCC2", "growth rescue (activation)": "inactive: -0.891%"},
      {"smiles": "CCc1ccc(NC(=O)Cn2cnc3sc(C)c(S(=O)(=O)N4CCOCC4)c3c2=O)cc1", "growth rescue (activation)": "inactive: 7.5%"},
      {"smiles": "COc1ccc(-c2cc(C(=O)N3CCCC3)no2)cc1OC", "growth rescue (activation)": "inactive: 30.7%"},
      {"smiles": "O=C(COC(=O)c1ccc(Cl)c(S(=O)(=O)N2CCCC2)c1)NCc1cccs1", "growth rescue (activation)": "inactive: -2.95%"},
      {"smiles": "O=[N+]([O-])CC(=Nc1ccc(Cl)cc1)N/N=C\\c1oc(O)c2ccccc12", "growth rescue (activation)": "inactive: 32%"},
      {"smiles": "CCC1C(=O)CC(c2ccccc2)NC1c1ccccc1", "note": "(stereo not given)", "growth rescue (activation)": "inactive: 8.19%"},
      {"smiles": "Cc1ccc(C)c(NC(=S)N2CCC(NC(=O)c3ccccc3)CC2)c1", "growth rescue (activation)": "inactive: 12.3%"},
      {"smiles": "NNC(=O)COc1ccccc1[N+](=O)[O-]", "growth rescue (activation)": "inactive: 0.103%"},
      {"smiles": "C/C(=N\\NC(=O)c1ccc(NS(=O)(=O)c2cccs2)cc1)c1ccccn1", "growth rescue (activation)": "inactive: -62.7%"},
      {"smiles": "CC(C)NC(=S)N1CCN(C(c2ccccc2)c2ccccc2)CC1", "growth rescue (activation)": "inactive: 5.39%"},
      {"smiles": "O=c1cc(CN2CCN(Cc3ccccc3)CC2)c2cc(Cl)ccc2o1", "growth rescue (activation)": "inactive: 5.51%"},
      {"smiles": "Cc1ccccc1C(=O)NNC(=O)/C=C/c1ccccc1", "growth rescue (activation)": "inactive: 6.18%"},
      {"smiles": "O=[N+]([O-])c1ccccc1S(=O)(=O)N1CCc2ccccc2C1", "growth rescue (activation)": "inactive: -6.56%"},
      {"smiles": "CCCN1C2CCCC1CC(NC(=O)c1ccccc1OC)C2", "note": "(stereo not given)", "growth rescue (activation)": "inactive: -0.656%"},
      {"smiles": "CC(C)CC(c1nnnn1Cc1ccc2c(c1)OCO2)N1CCC(C(N)=O)CC1", "note": "(stereo not given)", "growth rescue (activation)": "inactive: 1.52%"},
      {"smiles": "COc1ccccc1-c1nnc(N)s1", "growth rescue (activation)": "inactive: 7.64%"},
      {"smiles": "Cc1nnc(SCC(=O)Nc2cc(C(N)=O)cc(C(N)=O)c2)n1-c1ccccc1", "growth rescue (activation)": "inactive: 10.8%"},
      {"smiles": "CCn1cnc2c(oc3ccccc32)c1=O", "growth rescue (activation)": "inactive: 19.8%"},
      {"smiles": "Cc1ccc(C(=O)C2=C(O)C(=O)N(Cc3cccnc3)C2c2ccc(Cl)cc2)o1", "note": "(stereo not given)", "growth rescue (activation)": "inactive: 11.2%"},
      {"smiles": "O=C(CNCCO)N1N=C(c2cccs2)CC1c1cccs1", "note": "(stereo not given)", "growth rescue (activation)": "inactive: 6.56%"},
      {"smiles": "CC(=C/C(=O)O)/C(=C\\c1ccc(Br)o1)C(=O)O", "growth rescue (activation)": "inactive: -14.3%"},
      {"smiles": "O=C(O)c1ccc(-n2nc(-c3ccccc3)c3ccccc3c2=O)cc1", "growth rescue (activation)": "inactive: 3.61%"},
      {"smiles": "CCCn1c(CN2CCN(C(C)=O)CC2)nc2cc(S(=O)(=O)N(C)C)ccc21", "growth rescue (activation)": "inactive: -46.9%"},
      {"smiles": "COc1ccc(N=C/C=C2/C=C(c3ccccc3)OC(C)(C)O2)cc1", "growth rescue (activation)": "inactive: -8.64%"},
      {"smiles": "O=C(NCc1ccccc1Cl)c1csc([C@@H]2C[C@H](O)[C@@H](CO)O2)n1", "growth rescue (activation)": "inactive: 0.159%"},
      {"smiles": "CCCCNC(=O)CN1C(=O)NC(Cc2ccccc2)(Cc2ccccc2)C1=O", "growth rescue (activation)": "inactive: -2%"}
    ]}
  ]
}
